From the supplement of paper PMC3334620
The full ranking holds about 33,000 sequences; the median of “E-score (-0.5 to 0.5)” is about -0.012, and the highest 2% start at about 0.27. Some of the results follow.

molecular target: T1, Vhr1 (UniProt P40522); assay: PBM E-score (8-mer binding enrichment) (E-score (-0.5 to 0.5)); higher = stronger / more preferred TF binding; most listed sequences are background and not binding sites; details: protein concentration: 200 nM; construct: GST-full length
T1 sequence: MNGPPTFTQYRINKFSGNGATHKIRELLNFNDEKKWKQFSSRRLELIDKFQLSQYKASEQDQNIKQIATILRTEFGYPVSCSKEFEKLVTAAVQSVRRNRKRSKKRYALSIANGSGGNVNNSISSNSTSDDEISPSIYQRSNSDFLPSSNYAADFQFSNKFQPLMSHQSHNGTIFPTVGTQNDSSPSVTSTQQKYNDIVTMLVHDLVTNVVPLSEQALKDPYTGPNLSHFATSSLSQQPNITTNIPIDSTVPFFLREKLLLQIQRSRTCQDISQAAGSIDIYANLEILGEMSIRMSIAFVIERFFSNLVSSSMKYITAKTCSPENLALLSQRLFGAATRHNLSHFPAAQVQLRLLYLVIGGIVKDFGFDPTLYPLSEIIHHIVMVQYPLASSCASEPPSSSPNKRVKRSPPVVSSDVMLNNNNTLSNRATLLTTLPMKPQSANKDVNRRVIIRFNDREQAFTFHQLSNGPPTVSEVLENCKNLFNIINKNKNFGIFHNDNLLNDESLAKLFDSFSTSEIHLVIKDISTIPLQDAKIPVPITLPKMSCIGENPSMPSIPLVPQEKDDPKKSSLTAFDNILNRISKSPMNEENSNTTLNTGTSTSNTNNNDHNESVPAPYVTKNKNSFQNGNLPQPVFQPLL
How it was run: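 GST-tagged yeast TFs (full-length or DNA-binding domain) were made by PURExpress in vitro transcription/translation and applied at about 100-200 nM to universal all-10-mer Agilent arrays. The arrays were made double-stranded by primer extension, on fresh or once-stripped slides. Bound protein was detected with fluorescent anti-GST, and scans were normalised with masliner. Each ungapped eight-base word, pooled with its reverse complement, received an E-score (modified Wilcoxon-Mann-Whitney statistic) from the Universal PBM Analysis Suite.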

| Sequence | PBM E-score |
| --- | --- |
| ATCGTGCC | -0.0704 |
| CAGATCTC | 0.115 |
| AGGCTCCC | 0.0362 |
| ACCAAAAA | 0.0817 |
| AACCAAAC | -0.00189 |
| AGCACACC | 0.0914 |
| ATTTAGGC | -0.0624 |
| AAGCAAAG | -0.215 |
| AGATGCCC | -0.0865 |
| CTGTGTCA | 0.161 |
| GCAGTAGA | -0.164 |
| ACTTTCTG | -0.0287 |
| CGACGAAC | 0.0153 |
| CGCTTATA | 0.089 |
| CGTCTTTC | -0.243 |
| CTCTCCAC | -0.179 |
| ACGTTTCT | -0.177 |
| GCGAATGA | 0.229 |
| AATCCAAC | 0.0468 |
| CACCTCTG | -0.0319 |
| ACGACCCT | -0.139 |
| AGGTGGTA | -0.0142 |
| CCTATTAC | 0.0699 |
| CGCGATCA | 0.184 |
| AGACTCCC | -0.00382 |

| Sequence | PBM E-score |
| --- | --- |
| TGCCTCAA | -0.0451 |
| ACCGCGGC | 0.0296 |
| CAACCTGC | 0.102 |
| ACTACCGC | -0.104 |
| AAGGCTCG | -0.297 |
| CCCTTCGG | -0.0928 |
| AGACTCCT | 0.186 |
| ATCTAGGC | -0.0831 |
| TCACGAAA | 0.0488 |
| ACGCTTCG | -0.0398 |
| CGCCGGCC | -0.152 |
| CACTCCAC | 0.0458 |
| AAGCCAAT | -0.00411 |
| CACAGGCG | 0.0476 |
| TAACAAAA | -0.0804 |
| TCGTTGCA | -0.0623 |
| GGCCACAC | 0.0109 |
| ACATTGTA | 0.134 |
| AATGCTTG | -0.127 |
| TTGCTAAA | -0.222 |
| GTCCGCCA | 0.083 |
| GCAGATGC | -0.137 |
| GCTCCCAA | -0.103 |
| AAACGTGA | -0.079 |
| AGCAGTTG | 0.0572 |

| Sequence | PBM E-score |
| --- | --- |
| CATTTCAG | 0.0121 |
| GCCGCAGA | -0.0902 |
| GCTCGCCA | -0.038 |
| ACTGGTAA | 0.0863 |
| CAAGGGTA | -0.0422 |
| CGATTGTA | 0.141 |
| ATTGCCTC | 0.0199 |
| AACACACG | 0.00318 |
| TGCACCAA | -0.181 |
| TATGTTCA | 0.0382 |
| AGGCTGCC | -0.0191 |
| CATACACC | 0.101 |
| AACGTTGA | -0.0968 |
| AGAGTTGC | -0.153 |
| GGAAACAC | 0.0508 |
| ACGTGGCT | 0.0777 |
| GCAAGGCA | -0.172 |
| CTCGATTA | 0.216 |
| CGGGCGTC | 0.0249 |
| CGGAGAGC | -0.142 |
| AGCTAAAT | -0.161 |
| GAAAACTA | -0.0593 |
| ATATGGCC | -0.14 |
| CAAGCCTC | 0.0384 |
| TTCAGAAA | -0.29 |

| Sequence | PBM E-score |
| --- | --- |
| AACAGGCC | -0.23 |
| ATGTAATG | 0.131 |
| CCAAACCC | 0.0097 |
| CGGGGCGC | -0.196 |
| ACGGCGGG | 0.167 |
| GGAGCAAA | -0.0129 |
| CACGGAGA | -0.046 |
| AACATGTT | -0.00334 |
| CGGGCACA | 0.0216 |
| GCCGATAA | -0.285 |
| CTCCAGGA | 0.0194 |
| CGACCGCC | 0.108 |
| TAAAATCA | 0.0622 |
| ACCTCAAT | -0.082 |
| TAATTGGA | -0.0119 |
| AAGTTTCG | -0.105 |
| AAGTGATA | -0.14 |
| AGTACTTG | -0.0003 |
| CGAATATA | -0.0292 |
| CGATCAGA | -0.0338 |
| CTAACAAC | 0.0793 |
| ACGTATAG | 0.0467 |
| AACTTACC | -0.0137 |
| GACTAAAA | 0.0237 |
| AGTCCCTA | -0.0461 |

| Sequence | PBM E-score |
| --- | --- |
| GGGTCAAA | 0.0941 |
| ATGCGCAG | -0.0631 |
| ATAGGATA | -0.0225 |
| GTTTCCAA | -0.0854 |
| GCAATTTA | 0.0086 |
| AGAGTGCC | -0.268 |
| CGGCGGAG | 0.0583 |
| CTAAGGGC | -0.19 |
| TATGATAA | 0.117 |
| AAACGCAT | -0.141 |
| TCGGGAAA | 0.0834 |
| GTCTAATA | -0.214 |
| ATAATCAA | 0.0618 |
| CCATCCGA | 0.153 |
| ATTTGACA | -0.00873 |
| ATGCGGCA | -0.0033 |
| GATCGCTA | -0.142 |
| GCACTGGA | 0.0423 |
| AAAGTAGA | -0.198 |
| CTCGACGA | -0.101 |
| CCTGCTCG | -0.128 |
| CTCAGGGA | -0.0411 |
| GCCAATCC | 0.0162 |
| AGAAACCG | 0.0625 |
| GTCTGATA | -0.0684 |

| Sequence | PBM E-score |
| --- | --- |
| GCAGGGGC | -0.189 |
| CGGATAAA | 0.00446 |
| CCCGACTA | 0.206 |
| TATTGGAA | -0.313 |
| ACTTTACA | 0.0981 |
| AGGCTCGG | -0.0702 |
| ATTGCCGG | -0.162 |
| CAGCGCAC | -0.152 |
| CGCTCTAC | -0.0251 |
| ATTACCCG | -0.0973 |
| ATGCTTCC | -0.023 |
| ACACGGCA | -0.0102 |
| CTCCGCTC | 0.0398 |
| ACACCTGA | 0.23 |
| ACAGGCAG | 0.139 |
| GTTAGCGA | -0.0989 |
| AAGGAATC | -0.0238 |
| CACTGACA | 0.0987 |
| CTGTTCAC | 0.0692 |
| CATCAATG | 0.0555 |
| CTCCGGTA | -0.0727 |
| AAAGTCTG | -0.307 |
| TCAGCTCA | 0.135 |
| GTTGTGCA | -0.0995 |
| AACTTCGT | -0.154 |

| Sequence | PBM E-score |
| --- | --- |
| CCCACCCG | 0.382 |
| GTTTTTGA | -0.00048 |
| ATGTACTC | -0.0243 |
| ACCCAATG | 0.0548 |
| ACGGCATC | -0.115 |
| GCCTTCTA | -0.234 |
| AGCCTCAA | -0.244 |
| ACCTTATC | -0.0284 |
| AAGACGGT | -0.229 |
| CCGGTGGC | -0.0116 |
| TTAACTAA | 0.082 |
| AACCTGGG | -0.203 |
| GCAAAGTA | 0.0726 |
| TCCCCACA | -0.229 |
| AAGGTTGT | -0.0894 |
| CCCGCACA | 0.0842 |
| GCTTCCAA | -0.269 |
| ACGGATCA | 0.205 |
| CCGGTATA | 0.0882 |
| AAATTCTA | -0.276 |
| GCTTTGCC | -0.247 |
| AGCGGCGA | 0.0783 |
